According to the RNAGym collection of RNA variant scans (doi:10.7554/elife.90254):
Read counts are not given, so values of variants with three or more changes are uncertain.

B1: LINE1-mini (parent)
chain: GGCAGAGCUCAACACAGCGUGGCAAAGUGGCUGUGGCUAGACUGCC

Variants of: B1
Assay: self-cleavage, relative activity (ratio to wild type); higher = more cleavage; in vitro, sequencing; the parent is a self-cleaving ribozyme

For GGCAAAGCUCAACACAGUCUGGCAAAGUGGCUGUUGCAAGACUGCC, which self-cleavage is on record?
Its self-cleavage is 0.02.

Which self-cleavage does the source give for GGCAGAGGUCAACACAGCGUGGCAAAUUGGCUAUCGUUAGACGGCC here?
Its self-cleavage is 0.02.

For GGCAGAGCUCAAAACAGCGUGGAAAAGUGGCUAUGGCUAUACUGCC, which self-cleavage is on record?
Its self-cleavage is 0.1.

For GGCAGAGCUCAACACAGCUUGGAAAAGUGGCUGUGGUUUGACUGCC, which self-cleavage is on record?
Its self-cleavage is 0.03.

With GACAGAGGUCAACACAGCGUGGCAAUGUGGCCGUGGCUAGUCUGCC as the variant, how does the self-cleavage read?
Its self-cleavage is 0.04.

Which self-cleavage does the source give for GCCUGAGCUCAACACAGCGUGGCAAAGUGGCUGUGGUAAGACUGCC here?
The self-cleavage was 0.06.

For CGCAGAGCUCCACACAGCGUGGCAACGUGGCUGUGGCUAGACUGCC, which self-cleavage is on record?
The self-cleavage was 0.01.

For GGCAGAGCCCAACAUAGCGUGGCAAAGUGGCUGUGGCUAGACAGCC, which self-cleavage is on record?
Its self-cleavage is 0.03.

With GGCAGAGCUCAACACAGCGUGGUACAGUAGCUGUGGCUAGACUGCC as the variant, how does the self-cleavage read?
The self-cleavage was 0.26.

With GUCAGAUCUAAACACAGCGUGGCAAAGUGGCUGUGGCUAGACUGCC as the variant, how does the self-cleavage read?
The self-cleavage was 0.

For GGCAGAGCUCACCAUAGCGUGGCAAAGUGGCUGUUGCUAGACUGCC, which self-cleavage is on record?
The self-cleavage was 0.02.

With GGCAGAGCUAAACACAGCGUGGCACAGUGUCUGUGUCUAGAAUGCC as the variant, how does the self-cleavage read?
The self-cleavage was 0.01.

For GGCAGAGAUCAACGCAGCGUGGCAAAGUGGCUGUGGAUAGACUGCC, which self-cleavage is on record?
The self-cleavage was 0.74.

With GGCAGAGCACAACACUGCGUGGCAAAGUGGCUGUGGUUAGACUGCC as the variant, how does the self-cleavage read?
Its self-cleavage is 0.05.

Which self-cleavage does the source give for GGCAGAGCUCAACGCAGCGUGGCAAAGUGGCUGCGGCUAGACUGUC here?
Its self-cleavage is 0.58.

For GCUAGAGCUCAACAUAGCGUGGCAAAGUGGCUGUGGCUAGCCUGCC, which self-cleavage is on record?
Its self-cleavage is 0.46.

For CGGAGAGGUCAACACAGCGUGGCCAAGAGGCUGUGGCUAGACUGCC, which self-cleavage is on record?
The self-cleavage was 0.03.

With GGCAGAGCUCAAUCGAGCGUGGCAAAACGGCUGUGGCUAGACACCC as the variant, how does the self-cleavage read?
The self-cleavage was 0.01.

For GCCAGAGCUCAACGCAGCGUGGCAAAGUUACUGUGGCUAGACUGCC, which self-cleavage is on record?
The self-cleavage was 0.03.

With GGCAGAGCUCAACACAGCGUGGCAAAGUGGCUGUGUCUAUACUGUU as the variant, how does the self-cleavage read?
Its self-cleavage is 0.06.

For GGCAGAUCUCAACUCAGCGUGGCAAAUUGGCUGUGGCUAAACUCCC, which self-cleavage is on record?
The self-cleavage was 0.23.

For GGCAGGGCUCAACACAGCGUGGCAAAGUGCCUGUGGCUUGACUGCC, which self-cleavage is on record?
Its self-cleavage is 0.07.

With GGCAAAGCUCAACAGAGCGUGGCAAAGUGGCAGUGGCUAGACUGCC as the variant, how does the self-cleavage read?
The self-cleavage was 0.01.

With GGCAGAGCUCAACACAGCGUGGCAAAGUUGCUGUGGCUCGGUUGCC as the variant, how does the self-cleavage read?
The self-cleavage was 0.05.

With CGCAGAUCUCAACACAGCGUGGCAAAGUGGCUGUGGCUAAAGUGUC as the variant, how does the self-cleavage read?
Its self-cleavage is 0.06.

With GGCAGAGUUCAACGCCGCGUGGCAAAGUGGCCGUGGCUAGACUGCC as the variant, how does the self-cleavage read?
The self-cleavage was 0.02.

With GGCAGAGCUCAACACAGCGCGGCAAAGUGUCUGUGGCUAGACAGCC as the variant, how does the self-cleavage read?
The self-cleavage was 0.02.

For GACAGAGCACAACACAGCGUGGCUAAGUGGCUGUGGCUAGACUGCC, which self-cleavage is on record?
Its self-cleavage is 0.54.

With GGCAGAGUUCAACACAGCGUGGCAAAGUGGGUGUGUCUAGACUGCC as the variant, how does the self-cleavage read?
Its self-cleavage is 0.15.

For GGCAGGGCUCAAGACAGAGUGGCAAAGUGGCUGUGUCUGGACUGCC, which self-cleavage is on record?
Its self-cleavage is 0.03.

For GGGAGAGCUCAACACAGCGUGGCAAAGUGGCUAUGGCUAGCCUGCC, which self-cleavage is on record?
The self-cleavage was 0.18.

For GGCAGAGCUCCACACAGCCUGGCAAAAUGGCUGUGGCUAGACUGCC, which self-cleavage is on record?
Its self-cleavage is 0.04.

For GGCAGAGCUCAACACUGCUUGGCAAAGUGGCUGUGGCUGGCCUACC, which self-cleavage is on record?
The self-cleavage was 0.01.

With GGCCGCUCUCAACACACCGUGGCAAAGUGCCUGUGGCUAGACUACC as the variant, how does the self-cleavage read?
Its self-cleavage is 0.24.

With GCCAGAGCUCAACACAGCGUGCCAACGUGGCUGUGGCUAGACUGCC as the variant, how does the self-cleavage read?
The self-cleavage was 0.07.

With GGCAGAGGUCAAGACAGCGUGGCAAAGUGGCUGUGGCAAGACUGCC as the variant, how does the self-cleavage read?
Its self-cleavage is 0.02.

Which self-cleavage does the source give for GGCAGAGCUCAACACAGCUUGGCAAAUUGGAUGUGGCCAGACUGCC here?
Its self-cleavage is 0.07.

Which self-cleavage does the source give for GGCAGAGCUAAACACCGCGUGCCAAAGUGGCUGUGACUAGCUUGCC here?
The self-cleavage was 0.01.

Which self-cleavage does the source give for GGCAGUGCUCAACACAGCGUGGCAAAGUGGCUUUGGCCAGACUGCC here?
Its self-cleavage is 0.

For GGCAGAGCUCAACACAGCGGCGCAAAGUGGCUGUGACUAGACUGCC, which self-cleavage is on record?
Its self-cleavage is 0.02.

With GGCAUAUCUCAACACAACGUGGCAAGGAGGCUGUGGCUAAAGUGCC as the variant, how does the self-cleavage read?
The self-cleavage was 0.02.

For GGCAGUGCUCAACACAGUGUGGCACACUGGCUGUGGCUAGACUGCC, which self-cleavage is on record?
Its self-cleavage is 0.29.

Which self-cleavage does the source give for GGCAGAGCUCAACAUAGCUUGGCAAAGCGGCUGUUGCUAGACUGCC here?
Its self-cleavage is 0.02.

For GGCAGAGCUCGAAACAGCGUGGCAAAGUGGCUGUGGCUAGACCGCC, which self-cleavage is on record?
The self-cleavage was 0.04.

For GGCAGAGCUCAACAAAGCGCGGGAAAGUGGCUGUUGCUAGACUGCC, which self-cleavage is on record?
The self-cleavage was 0.

For GGCAUAGCUCAACACAGCGUGGCAAAUUUGAUAUGGCUAGACUGCC, which self-cleavage is on record?
The self-cleavage was 0.01.

With GGCAGAUCUCAACACACCGUGGCAAAGUGGCCGUGGAUAGAAUGCC as the variant, how does the self-cleavage read?
Its self-cleavage is 0.03.

Which self-cleavage does the source give for GGCAGGCCUCAACACAGCGUGGCAAAGUGGCUGUGGCUAGACGGCC here?
Its self-cleavage is 0.01.

With GGCACAGCUCAACACAGAGUGGCAAAGUGGCUGUGGCUGGACUGUC as the variant, how does the self-cleavage read?
The self-cleavage was 0.03.

Which self-cleavage does the source give for GGCAGAGCUCAAUAGAGCGUGGCAAAUUGGCUGAGGCUAGACUGCC here?
Its self-cleavage is 0.01.

Which self-cleavage does the source give for GGCAUACCUCAACACAGCGUGGCAAAGUGGCUGUGGCUAGACCGCC here?
Its self-cleavage is 0.09.

For GGCAGAGAUCCACAAAGCGUGGCAAAGUGGCUGUGGCUAGACUGCC, which self-cleavage is on record?
The self-cleavage was 0.02.

Which self-cleavage does the source give for GGAAGAACUCAACACAGGGUGGCAAAGUGGCUGUGGCUAGACUGCU here?
Its self-cleavage is 0.08.

For GGCAGAGCUCAACACAGAGAGGCAAAGUGGCUGUAGCUAGACUGCC, which self-cleavage is on record?
The self-cleavage was 0.02.

For GGUAGAGUGCAACACAGCUUGGCAAAGUGGCUGUGGCUAGACUGCC, which self-cleavage is on record?
Its self-cleavage is 0.13.

For GGCAGAGCUCAAAAUAGGGUGGCUAAGUGGCUGUGGCUAGACUGCC, which self-cleavage is on record?
The self-cleavage was 0.04.
